# Laboratory results reported in patent US11033519B2, “Drug combination with antitumor effects” (DONGGUAN ANHAO PHARMACEUTICAL CO., LTD., priority 2016, dated 2021).
# Several values for one entry are separate records, joined by “and”; a condition that tells them apart may be missing. Equal entries are not always repeated.
# How the values were obtained:
# [1] = test system: human lung cancer 95D; assay: DX1002 combined with CBP against human lung cancer 95D transplanted in nude mice; format: in vivo; conditions: DX1002 400 mg/kg ig × 14, CBP 10 mg/kg ip × 5
# Experimental: Group 2: CBP 10 mg/kg/day (ip×10 days, injected every other day)
# 29 days after inoculation (d17), all animals were sacrificed and weighed.
# [2] = test system: mouse melanoma B16; conditions: CTX 60 × 1, DX1002 5 × 13; based on tumor weight; listed as cyclophosphamide
# Experimental: The administration volume of cyclophosphamide injection was per 10 g mouse via intraperitoneal injection. For the single use or the combined use of cyclophosphamide, on the next day of inoculation, cyclophosphamide was injected once. […] For the combination group of DX1002 and cyclophosphamide, DX1002 was firstly injected to the left side of peritoneal cavity, and then cyclophosphamide was injected to the right side of peritoneal cavity.
# Each group includes 10 mice.
# [3] = test system: human lung cancer A549; assay: DX1002 combined with paclitaxel against human lung cancer A549 transplanted in nude mice; conditions: for Tumor inhitory rate / RTV (d 21): paclitaxel 5 × 11, DX1002 200 × 21; for RTV (d 21): relative tumor volume
# [4] = test system: human ovarian cancer A2780; assay: DX1002 combined with paclitaxel against human ovarian cancer A2780 transplanted in nude mice
# [5] = test system: mouse liver cancer H22; assay: DX1002 singly used and combined with adriamycin against mouse liver cancer H22; conditions: adriamycin 3 × 6, DX1002 800 × 11; based on tumor weight
# [6] = test system: human colon cancer HT-29; assay: DX1002 combined with BON against human colon cancer HT-29 transplanted in nude mice; conditions: BON 1 × 7, DX1002 200 × 14
# [7] = test system: human liver cancer huh-7; assay: DX1002 combined with sorafenib against human liver cancer huh-7 transplanted in nude mice; conditions: sorafenib 20 × 11, DX1002 100 × 11 po; listed as sorafenib
# [8] = test system: mouse Lewis lung cancer; assay: DX1002 singly used and combined with docetaxel against mouse Lewis lung cancer; conditions: TXT 5 × 5, DX1002 1600 × 10; based on tumor weight; listed as docetaxel
# [9] = paclitaxel 10 × 11, DX1002 10 × 11
compound,measurement,setting,value
"N.N.O=C([O-])C1(C(=O)[O-])CCC1.[Pt+2] [CBP, Carboplatin]",Tumor inhibitory rate,[1],41.85%
"O=P1(N(CCCl)CCCl)NCCCO1 (stereo not drawn) [CTX, cyclophosphamide]",Tumor inhibitory rate,[2],44.04%
"COc1ccc(/C=C(/C(=O)O)c2cc(OC)c(OC)c(OC)c2)c(O)c1O [DX1002, (E)-3-(2′,3′-dihydroxyl-4′-methoxylphenyl)-2-(3″,4″,5″-trimethoxylphenyl)-2-acrylic acid]",Tumor inhibitory rate,[1],56.65%
same,Tumor inhitory rate,[3],51.96%
same,RTV (d 21),[3]; x ± SD,4.90 ± 0.69
same,Tumor inhibitory rate,[4]; [9],55.51% and 54.53%
same,Tumor inhibitory rate,[5],57.67% and 57.02%
same,Tumor inhibitory,[6],48.87% and 50.31%
"CNC(=O)c1cc(Oc2ccc(NC(=O)Nc3ccc(Cl)c(C(F)(F)F)c3)cc2)ccn1 [Sorafenib, sorafenib]",Tumor inhibitory rate,[7],58.81%
"CC(=O)O[C@@]12CO[C@@H]1C[C@H](O)[C@@]1(C)C(=O)[C@H](O)C3=C(C)[C@@H](OC(=O)[C@H](O)[C@@H](NC(=O)OC(C)(C)C)c4ccccc4)C[C@@](O)([C@@H](OC(=O)c4ccccc4)[C@H]21)C3(C)C [TXT, docetaxel]",Tumor inhibitory rate,[8],53.65%
"CC(=O)O[C@H]1C(=O)[C@@]2(C)[C@H]([C@H](OC(=O)c3ccccc3)[C@]3(O)C[C@H](OC(=O)[C@H](O)[C@@H](NC(=O)c4ccccc4)c4ccccc4)C(C)=C1C3(C)C)[C@]1(OC(C)=O)CO[C@@H]1C[C@@H]2O [paclitaxel, Paclitaxel]",Terminal weight,"[3]; nude mice with A549 tumor, paclitaxel 5 mg/kg × 11 ip, DX1002 200 mg/kg × 21 ig, x ± SD",23.8 ± 1.2 g
same,Tumor inhitory rate,[3],61.08%
same,RTV (d 21),[3]; x ± SD,3.97 ± 0.90
same,Terminal body weight,"[4]; nude mice with A2780 tumor, paclitaxel 10 mg/kg × 11, DX1002 10 mg/kg × 11, x ± SD",22.0 ± 0.6 g
same,Tumor inhibitory rate,[4]; [9],54.53%
same,Tumor inhibitory rate,"[4]; paclitaxel 10 × 11, DX1002 10 × 11, listed as Paclitaxel",55.51%
same,RTV (d 21),"[4]; relative tumor volume, d 21, paclitaxel 10 × 11, DX1002 10 × 11, x ± SD",18.48 ± 3.58
bleomycin hydrochloride [BON],Tumor inhibitory,"[6]; listed as bleomycin hydrochloride, hydrochloride",5.31%
